Lines with a small IC50 respond at low doses; a limit (>, <) means that the fit lies beyond the doses tested. AUC is the area under the same curve over the 256-fold range up to the top dose, as a fraction: 1 means no effect, lower means more sensitive. For some assays here: A top dose marked as inferred was derived from the fitted curves, not read from the paper. For some assays here: Where an entry number is given, a second screen of the drug exists; the two often differ.
Key:
Assay in all cases: Viability of human cancer cell lines after 72 h of drug (GDSC screen)
[1] = compound: COc1cc(F)c(F)c(Nc2ccc(I)cc2F)c1NS(=O)(=O)C1(C[C@H](O)CO)CC1 [RDEA119]; settings: top dose 5 µM, top dose inferred
Experimental: (§1)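 Human cancer cell lines in 384-well plates, medium with 10% serum, drug for 72 h over a 256-fold dose range (nine 2-fold or five 4-fold steps up to the top dose). Adherent lines were fixed and stained with the nucleic acid dye Syto60, suspension lines read with resazurin; signal relative to control wells, capped at 0 and 100%. One two-parameter sigmoid per drug and line, fitted in a mixed model over all curves with the slope shared within a line.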

[2] = compound: Fc1cc(-c2ccnc(Nc3ccc(-n4cnc(N5CCOCC5)n4)cc3)n2)cc(N2CCOCC2)c1 [JNK-9L]; settings: top dose 5.12 µM; top dose inferred
Experimental: as §1

[3] = compound: NCC(=O)Nc1ccc(-n2nc(C(F)(F)F)cc2-c2ccc3c(ccc4ccccc43)c2)cc1 [OSU-03012]; settings: top dose 16 µM; top dose inferred
Experimental: as §1

[4] = compound: C#Cc1cccc(Nc2ncnc3cc(OC)c(OCCCCCCC(=O)NO)cc23)c1 [CUDC-101]; settings: top dose 5.12 µM; top dose inferred
Experimental: as §1

[5] = compound: OC[C@H](Cc1ccccc1)Nc1nc(Oc2ccc3c(c2)CCC3)nc2c1ncn2Cc1ccc(-c2ccccc2)cc1 [QS11]; settings: top dose 10.24 µM
Experimental: as §1

[6] = compound: CC(C)(C)c1cc(NC(=O)Nc2ccc(-c3cn4c(n3)sc3cc(OCCN5CCOCC5)ccc34)cc2)no1 [AC220]; settings: top dose 1.024 µM; top dose inferred
Experimental: as §1

Cell Line	AUC ([1]; screen: GDSC drug entry 1014)	IC50 ([1]; screen: GDSC drug entry 1014) [µM]	AUC ([1]; screen: GDSC drug entry 1526)	IC50 ([1]; screen: GDSC drug entry 1526) [µM]	AUC [2]	IC50 [2] [µM]	AUC [3]	IC50 [3] [µM]	AUC [4]	IC50 [4] [µM]	AUC [5]	IC50 [5] [µM]	AUC [6]	IC50 [6] [µM]
A375 (melanoma, adherent)	0.297	0.0948	0.294	0.0929	0.546	0.416	0.644	2.31	0.59	0.538	0.857	6.09	–	–
A549 (lung adenocarcinoma, adherent)	0.432	0.199	0.547	0.426	–	–	–	–	–	–	–	–	–	–
AsPC-1 (pancreas, adherent)	0.646	1.05	0.534	0.414	0.803	> 5.12	–	–	0.71	1.94	0.971	> 10.2	0.955	> 1.02
BALL-1 (B-cell leukaemia, suspension)	0.997	> 5	0.991	> 5	–	–	–	–	–	–	–	–	–	–
BT-549 (breast, adherent)	0.9	> 5	0.92	> 5	–	–	–	–	–	–	–	–	–	–
CCRF-CEM (lymphoblastic leukaemia, suspension)	0.958	> 5	0.958	> 5	0.526	0.371	–	–	0.244	0.0682	0.801	4.09	0.985	> 1.02
CL-34 (large intestine, adherent)	0.51	0.333	0.425	0.19	–	–	–	–	–	–	–	–	–	–
CL-40 (large intestine, adherent)	0.631	0.921	0.644	1.03	–	–	–	–	–	–	–	–	–	–
CML-T1 (chronic myeloid leukaemia, suspension)	0.837	2.57	0.939	> 5	–	–	–	–	–	–	–	–	–	–
COR-L32 (small cell lung carcinoma, suspension)	–	–	0.953	> 5	–	–	–	–	–	–	–	–	–	–
COR-L311 (small cell lung carcinoma, suspension)	–	–	–	–	–	–	–	–	–	–	–	–	0.904	> 1.02
CRO-AP2 (B-cell lymphoma, suspension)	0.967	> 5	0.971	> 5	–	–	–	–	–	–	–	–	–	–
DIFI (large intestine, adherent)	0.679	1.01	0.681	1.03	–	–	–	–	–	–	–	–	–	–
DOHH-2 (B-cell lymphoma, suspension)	0.986	> 5	–	–	0.569	0.491	0.728	4.38	–	–	0.87	9.19	–	–
ECC12 (stomach, suspension)	–	–	–	–	0.497	0.314	–	–	–	–	–	–	–	–
EHEB (lymphoid neoplasm, suspension)	0.899	> 5	0.973	> 5	0.549	0.464	0.76	8.25	–	–	0.979	> 10.2	–	–
EW-22 (Ewing sarcoma, adherent)	0.958	> 5	0.958	> 5	–	–	–	–	–	–	–	–	–	–
FLO-1 (oesophagus, adherent)	0.763	2.61	0.783	3.18	–	–	–	–	0.552	0.471	–	–	0.966	> 1.02
GA-10 (Burkitt lymphoma, suspension)	0.958	> 5	0.972	> 5	0.349	0.132	–	–	–	–	–	–	–	–
HCC-366 (non-small cell lung carcinoma, adherent)	0.956	> 5	0.945	> 5	–	–	–	–	–	–	–	–	–	–
HCC-827 (lung adenocarcinoma, adherent)	0.958	> 5	0.944	> 5	0.588	0.578	0.866	> 16	–	–	0.978	> 10.2	–	–
HCT-15 (large intestine, adherent)	0.721	1.38	–	–	0.502	0.325	–	–	0.91	> 5.12	0.686	2.2	0.979	> 1.02
HL-60 (acute myeloid leukaemia, suspension)	0.301	0.0921	0.803	2.18	0.582	0.522	0.646	2.42	0.385	0.16	0.913	> 10.2	–	–
HT-29 (large intestine, adherent)	0.332	0.107	0.469	0.257	0.523	0.37	–	–	0.561	0.468	0.868	9.26	0.986	> 1.02
IGROV-1 (ovary, adherent)	0.705	1.57	0.845	> 5	–	–	–	–	–	–	–	–	–	–
IM-9 (myeloma, suspension)	0.912	> 5	0.782	1.8	0.847	3.01	0.726	3.92	–	–	0.9	9.98	–	–
JEKO-1 (B-cell lymphoma, suspension)	0.953	> 5	0.976	> 5	–	–	–	–	–	–	–	–	–	–
JHOS-4 (ovary, adherent)	0.876	> 5	–	–	–	–	–	–	–	–	–	–	–	–
JHU-029 (head and neck, adherent)	0.653	0.919	0.616	0.701	0.533	0.401	0.614	2.22	–	–	0.928	> 10.2	–	–
